Among all 420,000 compounds or so, about 64,000 (15%) were called active. Inconclusive means that the source gave no clear call. Such entries were picked first, then a sample of the others. Calls follow the shape of the dose curve; as a rule, active = well fitted inhibition curve with a large enough effect; inconclusive = small, poorly fitted or top-dose-only effect; inactive = flat fitted curve, though single readings scatter. No potency is given beside an inconclusive call; the fits are too rough.
assay: qHTS for Inhibitors of human tyrosyl-DNA phosphodiesterase 1 (TDP1): qHTS in cells in absence of CPT; conditions: DT40 Tdp1-/- hTDP1 cells, no CPT, ATP luminescence, 48 h; activity change, negative = growth inhibition: at 46.2 µM (top of the series) unless noted; also: nearly all actives have a fitted effect of over 55% in size
Summary of the method: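 DT40 Tdp1-/-;hTDP1 cells, no CPT (DMSO vehicle only), 400 cells/well; compounds pin-transferred; ≥48 hr, 37 °C; CellTiter-Glo 30 min RT dark, luminescence read.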
% is scaled to controls: 0 for no effect and ±100 for the full control effect; potency is read from the fitted curve at half-maximal effect; tags tell the direction and shape of the fitted curve.

| Structure (SMILES) | activity change, negative = growth inhibition | Potency |
| --- | --- | --- |
| CCOC(=O)N1CCN(Cc2nc3c(c(=O)[nH]c(=O)n3C)n2Cc2ccccc2C)CC1 | inactive: 0.633% | – |
| COc1cc2c(cc1OC)C(c1cc3ccccc3oc1=O)=NC(C)(C)C2 | – | inconclusive [inhibitor, partial curve, poor fit] |
| Clc1cccc(CNc2nc(-c3cccnc3)nc3ccccc23)c1 | – | inconclusive [inhibitor, single point] |
| COc1ccc(Oc2ncc3ncc(=O)n(C)c3n2)cc1 | – | inconclusive [inhibitor, single point] |
| N/N=C(/Cc1nc2ccccc2[nH]1)c1ccc([N+](=O)[O-])cc1 | – | inconclusive [inhibitor, single point] |
| Cc1onc(-c2ccccc2)c1-c1n[nH]c(=S)n1-c1ccc(C(=O)O)cc1 | – | inconclusive [inhibitor, full curve, poor fit] |
| CC(C)Oc1ccc(CN2CCCC(CO)(Cc3ccccc3)C2)cc1CO (centres undefined) | – | inconclusive [inhibitor, single point] |
| CN(C)Cc1ccccc1-c1ccc2ncnc(NCc3cccs3)c2c1 | – | inconclusive [inhibitor, partial curve] |
| Cc1cccc(N2CCN(C(=O)C3CCN(C(=O)c4cc5sccc5n4C)CC3)CC2C)c1 (centres undefined) | – | active: 5.17 µM |
| COc1cc(SC#N)ccc1N=Cc1c(C)[nH]n(-c2ccc(C)c(C)c2)c1=O | – | active: 2.59 µM |
| CCCC(=O)Nc1sc(Cc2ccccc2)c(C)c1C(N)=O | – | active: 23.1 µM |
| O=S(=O)(Cc1ccc(Cl)cc1)c1ccccc1-c1nnc(-c2ccccc2)o1 | – | inconclusive [inhibitor, partial curve] |
| COc1ccc(-c2cc(C(F)(F)F)nc(N3CCCCC3)n2)cc1OC | – | inconclusive [inhibitor, single point] |
| O=C(Nc1ccon1)c1sc2cc(Cl)ccc2c1Cl | inactive: 1.06% | – |
| COc1cc(OC)cc(-c2nnc(Nc3nc4c(F)cccc4s3)o2)c1 | – | inconclusive [inhibitor, partial curve] |
| CN1CCc2nc3sc(C(=O)c4ccc(F)cc4)c(N)c3cc2C1 | – | inconclusive [inhibitor, single point] |
| CCOc1ccccc1CNCc1c(C(=O)O)c(C)n(Cc2ccc(C)cc2)c1C | – | inconclusive [inhibitor, single point] |
| COc1ccc(-n2c(=O)c(CCC(=O)NCCc3ccccc3F)nc3ccccc32)cc1 | – | inconclusive [inhibitor, single point] |
| O=S(=O)(c1ccccc1)N1CCC2(CCCN(Cc3ccccc3)C2)CC1 | – | inconclusive [inhibitor, single point] |
| Cc1cc(Cl)c(OCCCn2ccnc2)c(Br)c1 | – | inconclusive [inhibitor, single point] |
| COc1ccccc1Cc1nc(-c2cccnc2)no1 | – | inconclusive [inhibitor, single point] |
| CCn1c(-c2cccc(OC)c2)nc2cc(NC(C)=O)cc(C(=O)N(C)CC3COCCO3)c21 (centres undefined) | inactive: -16.8% | – |
| COc1ccc(C(=O)NCC(=O)N/N=C/c2ccc(C)o2)cc1OC | inactive: 12.4% | – |
| CCOc1ccc(CCNC(=O)Cn2c(-c3cccs3)cc3ccccc32)cc1 | – | inconclusive [inhibitor, single point] |
| COc1cccc(-c2c(C(=O)N/N=C/c3ccc(C)o3)nnn2-c2nonc2N)c1 | inactive: 14.1% | – |

| Structure (SMILES) | activity change, negative = growth inhibition | Potency |
| --- | --- | --- |
| COc1cc(C)c(Br)cc1S(=O)(=O)N1CCCC1 | inconclusive: -31.7% [inhibitor] | – |
| Cc1nc(SCC(=O)O)c(C#N)c2c1CCCC2 | inactive: -29.2% | – |
| CCN(CC)S(=O)(=O)c1ccc(N=Nc2c(C)[nH]n(C(N)=S)c2=O)cc1 | inactive: -26.6% | – |
| CCOc1ccc(NC(=O)CN(Cc2ccccc2)S(=O)(=O)c2ccc3nc(C)sc3c2)cc1 | – | active: 25.9 µM |
| COc1ccc(NC(=O)C2CCCO2)cc1 (centres undefined) | inactive: 18.2% | – |
| Cc1cccc(NC(=S)N(CCN2CCOCC2)Cc2cc3cc4c(cc3[nH]c2=O)OCCO4)c1 | – | active: 16.4 µM |
| CC(=O)C1=C(C)NC(SCC(N)=O)=C(C#N)C1C (centres undefined) | inactive: -19.5% | – |
| CCOC(=O)C1(C)CCN1C(=O)c1ccc2ccccc2c1 (centres undefined) | – | inconclusive [inhibitor, single point] |
| CCN(C(=O)COC(=O)c1cccs1)c1c(N)n(Cc2ccccc2)c(=O)[nH]c1=O | inactive: 12% | – |
| CC1CN(C(=O)CCC(=O)N2CCN(c3cccc(C(F)(F)F)c3)CC2)c2ccccc2O1 (centres undefined) | – | active: 20.6 µM |
| Cc1ncoc1C(=O)N1CCCC(C(=O)c2ccc(Oc3ccccc3)cc2)C1 (centres undefined) | inactive: -10.3% | – |
| O=[N+]([O-])c1ccc2nc(NCCCO)nc(-c3ccccc3)c2c1 | – | active: 23.1 µM |
| CC1CCN(S(=O)(=O)c2ccc(NC(=O)CN3CCCC(C)C3)cc2)CC1 (centres undefined) | – | inconclusive [inhibitor, single point] |
| CSc1ccc(NC(=O)C2(C)CCN2C(=O)c2sccc2C)cc1 (centres undefined) | – | inconclusive [inhibitor, single point] |
| CCCCSc1n[nH]c(=S)c2nc[nH]c12 | – | inconclusive [inhibitor, partial curve] |
| CCOC(=O)c1c(-c2ccco2)csc1NC(=O)COC(=O)c1cnccn1 | – | inconclusive [inhibitor, single point] |
| COc1c(/C=N/NC(N)=S)c(C)nn1-c1ccccc1 | inconclusive: -31.5% [inhibitor] | – |
| CCOc1ccc(OC(=O)c2cccc(S(=O)(=O)N3CCN(C)CC3)c2)cc1 | inactive: 3.03% | – |
| COc1ccccc1NC(=O)CSc1nnc(CCC(=O)Nc2ccccc2F)n1C | inactive: -26.5% | – |
| COCCCNc1ncnc2ccc(C)cc12 | – | active: 18.4 µM |
| COC(=O)CCCC1=CC2=C(c3ccccc3)C(=O)C(C)(OC(=O)C3CCCC3)C(=O)C2=CN1CCN1CCOCC1 (centres undefined) | inactive: -29.8% | – |
| COc1ccc(CC(=O)Nc2cc(S(=O)(=O)N3CCOCC3)ccc2N2CCCC2)c(OC)c1 | inactive: -9.37% | – |
| CCn1cc(S(=O)(=O)N2CCc3ccccc3C2)cn1 | inactive: 9.25% | – |
| CCNC(=O)C12CCC(C)(C(=O)O1)C2(C)C (centres undefined) | inactive: -9.32% | – |
| CCOC1=C2[C@@H](CN(S(=O)(=O)c3ccc(C)cc3)[C@H]2c2ccccc2)[C@H]2C(=O)N(Cc3ccccc3)C(=O)[C@H]2C1 | – | inconclusive [inhibitor, partial curve] |

| Structure (SMILES) | activity change, negative = growth inhibition | Potency |
| --- | --- | --- |
| O=C(OCC(=O)N1CCC(Cc2ccccc2)CC1)c1cc(Br)ccc1O | – | inconclusive [inhibitor, single point] |
| COc1cccc(N(CC(=O)NC2CCCCC2)C(=O)c2snc(C(N)=O)c2N)c1 | inactive: -25.9% | – |
| CCOC(=O)c1c(NC(=O)COC(=O)Cc2n[nH]c(=O)c3ccccc23)sc(C(=O)NC)c1C | – | inconclusive [inhibitor, full curve] |
| O=C(Cn1cnc2ccccc2c1=O)Nc1cccc(S(=O)(=O)N2CCCCC2)c1 | inconclusive: -33.3% [inhibitor] | – |
| CCOc1ccc(N2CC(NC(=O)c3ccc(Cl)cc3)CC2=O)cc1 (centres undefined) | – | inconclusive [inhibitor, single point] |
| Cc1cccc(NC2=NC3(CCCCC3)N=C(N)N2)c1C | inconclusive: -33% [inhibitor] | – |
| Cc1ccc(S(=O)(=O)Nc2nc3ccccc3nc2Nc2cccc(S(=O)(=O)N3CCCC3)c2)cc1 | – | inconclusive [inhibitor, partial curve] |
| Cc1c(C(=O)OC(C)C)sc(NC(=O)C2CCCO2)c1C(=O)OC(C)C (centres undefined) | – | inconclusive [inhibitor, single point] |
| Cc1cccc(NC(=O)c2oc3ccccc3c2NC(=O)c2cc(=O)c3ccccc3o2)c1 | inactive: 0.177% | – |
| c1nc(COc2nsnc2N2CCOCC2)cs1 | inactive: -13.8% | – |
| CCOC(=O)N1CCN(C(=O)c2[nH]c(C(F)(F)F)nc2-c2ccccc2)CC1 | – | active: 16.4 µM |
| CC(C)CCN1C(Nc2ccccc2)=NC[C@@H]1C | – | inconclusive [inhibitor, single point] |
| CCOC(=O)N1CCc2c(sc3c2c(=O)n(Cc2ccccc2)c(=O)n3CC(=O)Nc2ccc(F)cc2)C1 | – | active: 10.3 µM |
| CCN(CC)CCOC(=O)c1ccc(NC(=O)/C=C/c2cccs2)cc1 | – | inconclusive [inhibitor, single point] |
| COc1cc(C(C)=O)ccc1OCC(=O)Nc1cc(C)on1 | inactive: -9.9% | – |
| COc1ccc(-n2c(C)c(C)c3c(N)ncnc32)cc1 | – | inconclusive [inhibitor, partial curve] |
| O=C(CCNc1cc(Cl)cc(Cl)c1)c1cccs1 | – | inconclusive [inhibitor, partial curve] |
| COC(=O)c1ccc(NC(=S)N2CCN(Cc3ccccc3)CC2)cc1 | inactive: -4.73% | – |
| O=C(Nc1c(-c2ccc3c(c2)OCO3)[nH][nH]c1=O)c1cnccn1 | inactive: 4.83% | – |
| CCc1cc2c(=O)nc3n(c2s1)Cc1ccccc1/C3=C(/O)c1cccc([N+](=O)[O-])c1 | – | inconclusive [inhibitor, single point] |
| O=C(CCCN1C(=O)/C(=C/c2cccc(Br)c2)SC1=S)Nc1ccccn1 | – | inconclusive [inhibitor, single point] |
| Cc1nc(NC(C)c2ccccc2)c2c3c(sc2n1)CCC3 (centres undefined) | – | active: 16.4 µM |
| O=C(O)CC(NC(=O)/C(=C/c1ccccc1)NC(=O)c1ccccc1)c1ccccc1 (centres undefined) | inactive: 0.478% | – |
| CSCC[C@H](NC(=O)[C@H](Cc1ccccc1)n1c(=O)[nH]c2ccccc2c1=O)C(=O)N1CCC(C(=O)O)CC1 | inactive: 21.4% | – |
